# Experimental data taken from the supplement of paper PMC7826260.
# The list shows a part of the results. The data describe in vitro nicking of single-stranded DNA by Rep domains (1 h at 37 °C, 3 µM enzyme); the outer parts of the 90-letter strands are left off. Numbers give uncut DNA relative to the enzyme-free pool, as log2; more negative means more cut, near 0 not cut, and no call is made. Shares of all reads are compared; values above 0 arise when much of the pool is cut.
# Experiments:
# Test in all cases: uncleaved DNA left, log2 of reads against the no-enzyme library (log2 ratio); higher = less cleavage (more negative = more Rep cleavage of the k-mer); sequences stand for … in CTCGTCCG…ACCGGAGA
# [1] = tested on: T1, Rep nickase domain of Muscovy duck circovirus
# T1 sequence (residues 1-111, tag not shown): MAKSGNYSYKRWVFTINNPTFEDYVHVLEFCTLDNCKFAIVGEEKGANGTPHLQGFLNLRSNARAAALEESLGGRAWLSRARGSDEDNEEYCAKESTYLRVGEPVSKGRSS
# Protocol: (§1)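 A pool of 90-nt single-stranded DNAs with seven random bases just before the constant AC of the nick site (name = the seven bases) was cut by 3 µM recombinant His6-SUMO-tagged Rep nickase domain (300 nM DNA, 50 mM HEPES pH 8.0, 50 mM NaCl, 1 mM MnCl2, 1 h, 37 °C, three replicates). Uncut DNA was amplified and sequenced.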
# [2] = tested on: T2, Rep nickase domain of banana bunchy top virus
# T2 sequence (residues 1-94, tag not shown): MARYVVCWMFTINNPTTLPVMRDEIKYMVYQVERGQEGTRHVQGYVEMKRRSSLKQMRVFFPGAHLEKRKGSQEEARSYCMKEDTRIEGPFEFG
# Protocol: as §1
# [3] = tested on: T3, Rep nickase domain of cabbage leaf curl virus
# T3 sequence (residues 1-116, tag not shown): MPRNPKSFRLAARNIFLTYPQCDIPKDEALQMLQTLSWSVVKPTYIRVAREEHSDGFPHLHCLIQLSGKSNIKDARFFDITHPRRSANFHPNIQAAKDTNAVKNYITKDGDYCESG
# Protocol: as §1
# [4] = tested on: T4, Rep nickase domain of chickpea chlorotic dwarf virus
# T4 sequence (residues 1-124, tag not shown): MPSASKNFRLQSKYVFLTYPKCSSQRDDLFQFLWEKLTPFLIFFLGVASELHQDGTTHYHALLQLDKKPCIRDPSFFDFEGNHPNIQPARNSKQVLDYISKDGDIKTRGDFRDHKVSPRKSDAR
# Protocol: as §1
# [5] = tested on: T5, Rep nickase domain of faba bean necrotic yellows virus
# T5 sequence (residues 1-98, tag not shown): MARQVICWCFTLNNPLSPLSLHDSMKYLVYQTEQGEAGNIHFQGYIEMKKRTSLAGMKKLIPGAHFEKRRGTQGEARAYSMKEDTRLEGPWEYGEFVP
# Protocol: as §1
# [6] = tested on: T6, Rep nickase domain of maize striate mosaic virus
# T6 sequence (residues 1-117, tag not shown): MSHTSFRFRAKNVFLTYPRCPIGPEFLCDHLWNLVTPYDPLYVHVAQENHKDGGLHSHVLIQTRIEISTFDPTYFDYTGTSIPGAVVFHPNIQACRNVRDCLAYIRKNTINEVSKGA
# Protocol: as §1
# [7] = tested on: T7, Rep nickase domain of porcine circovirus 2
# T7 sequence (residues 2-116, tag not shown): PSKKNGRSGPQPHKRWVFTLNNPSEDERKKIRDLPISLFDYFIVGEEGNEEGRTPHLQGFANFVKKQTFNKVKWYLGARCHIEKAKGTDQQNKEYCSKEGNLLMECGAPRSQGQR
# Protocol: as §1
# [8] = tested on: T8, Rep nickase domain of tomato yellow leaf curl virus
# T8 sequence (residues 1-136, tag not shown): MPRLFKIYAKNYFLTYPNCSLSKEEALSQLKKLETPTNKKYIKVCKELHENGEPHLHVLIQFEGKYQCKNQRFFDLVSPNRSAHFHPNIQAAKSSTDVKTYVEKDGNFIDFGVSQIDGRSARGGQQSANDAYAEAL
# Protocol: as §1
# [9] = tested on: T9, Rep nickase domain of wheat dwarf virus
# T9 sequence (residues 1-137, tag not shown): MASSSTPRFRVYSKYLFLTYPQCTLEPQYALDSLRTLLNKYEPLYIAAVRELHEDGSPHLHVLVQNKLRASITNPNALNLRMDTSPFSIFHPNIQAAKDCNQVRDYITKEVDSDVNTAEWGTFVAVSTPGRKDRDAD
# Protocol: as §1
Sequence,uncleaved DNA left (log2) [1],uncleaved DNA left (log2) [2],uncleaved DNA left (log2) [3],uncleaved DNA left (log2) [4],uncleaved DNA left (log2) [5],uncleaved DNA left (log2) [6],uncleaved DNA left (log2) [7],uncleaved DNA left (log2) [8],uncleaved DNA left (log2) [9]
ATCCGCT,-0.129,-0.117,-0.428,-1.19,0.0172,-0.983,-0.175,-0.101,-0.121
TTCCACT,-0.0262,-0.0323,0.136,-2.18,-0.151,-0.236,-0.304,-0.0596,-0.0326
GTTACAA,0.0257,0.0874,0.252,0.91,0.0336,1.83,0.107,0.115,0.172
AATAGGA,0.0733,0.0806,0.176,0.484,0.13,-0.158,0.216,-0.0333,0.0592
TTTCCCG,-1.38,-0.0675,-0.906,-0.312,0.0253,-0.957,-2.48,-0.0176,-0.202
TCTATGG,0.165,0.103,0.466,1.04,0.152,1.09,0.183,-0.0143,0.0877
TGAGTGT,-0.0767,-0.00175,0.0971,0.397,0.00762,0.741,0.0592,-0.0384,-0.0509
TGGCTGT,0.088,-0.0283,0.0949,0.811,0.0268,1.4,-0.0602,-0.0161,0.0519
TAAAGCC,0.0502,-0.0154,-1.09,-2.66,0.0416,-1.16,0.125,-0.0572,-0.253
ATATCTG,0.0651,0.145,-0.0279,0.407,0.00924,0.263,0.159,-0.0241,0.147
GAATACT,-2.93,-1.94,-3.18,-2.74,-0.622,-1.92,-3.26,-0.981,-2.87
CCTGTGG,-0.0509,0.022,0.295,0.844,-0.0479,0.442,0.0953,-0.0376,-0.0146
AATTAGT,-3.92,-3.99,-1.04,-2.28,-0.304,-1.5,-4.11,-0.0972,-0.298
GGTGCTT,0.0591,-0.0249,0.717,1.58,0.0436,2.13,0.0176,0.0861,0.0913
CTTGATT,-0.217,-1.07,-0.201,-2.32,-0.216,-0.688,-3.36,-0.0883,-0.261
